Measurements: article PMC4336329 (PLoS ONE, 2015)
Among all 310,000 compounds or so, about 14,000 (4.5%) showed an effect of 50% or more. Effects have a minus sign here. The list shows a part of the results.

Biological target: human ether-à-go-go-related gene (hERG) potassium channel (human, UniProt Q12809)
Assay: primary screen, population patch clamp on CHO cells stably expressing hERG
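Also: peak tail current of the secondary pulse compared with the same well before compound.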

Sequence of human ether-à-go-go-related gene (hERG) potassium channel (Q12809 whole entry, looked up): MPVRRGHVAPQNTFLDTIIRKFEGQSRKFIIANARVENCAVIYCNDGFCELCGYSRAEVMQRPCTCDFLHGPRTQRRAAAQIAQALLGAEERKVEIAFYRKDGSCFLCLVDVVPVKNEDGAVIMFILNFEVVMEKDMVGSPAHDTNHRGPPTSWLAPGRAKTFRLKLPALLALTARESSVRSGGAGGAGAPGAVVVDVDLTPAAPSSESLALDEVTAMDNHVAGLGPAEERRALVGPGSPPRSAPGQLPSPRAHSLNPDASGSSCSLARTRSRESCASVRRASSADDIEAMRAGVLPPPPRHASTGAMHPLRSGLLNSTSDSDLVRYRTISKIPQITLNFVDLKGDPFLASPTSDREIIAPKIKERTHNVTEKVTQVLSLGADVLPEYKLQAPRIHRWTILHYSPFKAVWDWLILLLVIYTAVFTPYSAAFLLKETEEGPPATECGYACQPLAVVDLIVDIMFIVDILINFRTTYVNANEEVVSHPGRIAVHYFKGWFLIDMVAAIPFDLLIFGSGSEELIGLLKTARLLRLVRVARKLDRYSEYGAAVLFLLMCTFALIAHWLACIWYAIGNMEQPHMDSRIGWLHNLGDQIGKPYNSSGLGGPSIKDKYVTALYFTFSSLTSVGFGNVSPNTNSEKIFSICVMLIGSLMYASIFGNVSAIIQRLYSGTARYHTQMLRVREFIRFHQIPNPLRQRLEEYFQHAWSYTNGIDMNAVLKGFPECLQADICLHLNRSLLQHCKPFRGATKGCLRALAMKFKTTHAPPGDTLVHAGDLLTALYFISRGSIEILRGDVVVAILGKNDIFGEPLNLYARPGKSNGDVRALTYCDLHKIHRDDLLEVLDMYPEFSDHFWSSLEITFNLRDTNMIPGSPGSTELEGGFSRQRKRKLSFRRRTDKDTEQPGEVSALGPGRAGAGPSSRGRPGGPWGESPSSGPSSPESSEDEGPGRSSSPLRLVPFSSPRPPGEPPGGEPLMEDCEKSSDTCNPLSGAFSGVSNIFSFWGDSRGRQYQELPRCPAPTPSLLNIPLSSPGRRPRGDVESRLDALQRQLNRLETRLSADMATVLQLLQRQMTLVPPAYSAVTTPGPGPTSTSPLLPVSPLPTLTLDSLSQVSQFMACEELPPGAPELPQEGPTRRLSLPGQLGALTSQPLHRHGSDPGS

| SMILES | hERG current change (%, negative = inhibition) at 10uM |
| --- | --- |
| COc1ccc(-c2cc(CNC(=O)CCl)on2)cc1 | 5.06% |
| CCCCNS(=O)(=O)c1ccc2nc(SCC(=O)Nc3sccc3C#N)[nH]c2c1 | -13.3% |
| O=C(COc1ccc(Cl)cc1Cl)N/N=C/c1ccc[nH]1 | -37.2% |
| N#CC[n+]1cc(-c2ccc(Cl)cc2)n2c1CCC2.[Cl-] | 5.21% |
| Cc1ccc(Cl)cc1NC(=O)CCN1C(=O)C2C3CCC(C3)C2C1=O (centres unmarked) | 4.42% |
| COCCSc1ccccc1C(=O)Nc1cc(C)ccn1 | 6% |
| Cc1ccc(C(=O)NCCc2csc(C)n2)cc1 | -2.69% |
| CCOc1ccc(N=Nc2cc(C(C)C)ccc2O)cc1 | 14.7% |
| C/C(CCC12CC3CC(CC(C3)C1)C2)=N\NC(N)=S | 14.4% |
| O=C1N=C(N2CCOCC2)S/C1=C/c1ccc(-c2ccccc2Cl)o1 | 3.9% |
| O=C(NC(=S)NC1CCSC1=O)c1ccccc1Cl (centres unmarked) | 12.5% |
| COc1ccccc1N1CCN(Cc2nc(N)nc(Nc3ccccc3)n2)CC1 | -69.6% |
| COc1ccc(Cl)cc1S(=O)(=O)N1CCN(C)CC1 | 12.5% |
| CC(C)(C)c1ccc(S(=O)(=O)N(CCCN2CCOCC2)Cc2cccs2)cc1.O=C(O)C(=O)O | -33.4% |
| Cc1c(C#N)c2ncn(CC#N)c(=O)c2n1-c1ccccc1 | -7.34% |
| O=C(c1ccc(Cl)c(S(=O)(=O)N2CCCC2)c1)N1CCCC(C(F)(F)F)C1 (centres unmarked) | -18.1% |
| CC(C)C(NC(=O)c1ccccc1Br)c1ccccc1 (centres unmarked) | 11.2% |
| Cc1ccc([N+](=O)[O-])cc1S(=O)(=O)NCCc1cn2ccccc2n1 | -2.95% |
| CCN(CC)CCn1c(NS(=O)(=O)c2ccc(C)cc2)nc2ccccc21 | -51% |
| Cc1ccccc1C(=O)NCCN1CCOCC1.Cl | 6.78% |
| CCN(CC)c1ccc(/C=N/NC(=O)c2c[nH]c3ccccc23)cc1 | -29.6% |
| COc1ccc(C(=O)c2nc3ccccc3n2C(C)C)cc1 | -0.93% |
| CC(C)OC(=O)c1ccc(NC(=O)Cn2c(-c3nonc3N)nc3ccccc32)cc1 | 18.4% |

| SMILES | hERG current change (%, negative = inhibition) at 10uM |
| --- | --- |
| COc1cccc(C(=O)NCc2ccco2)c1OC | 11.5% |
| Cl.Cn1cccc1CNCc1ccc(F)cc1 | 1.8% |
| S=c1[nH]nc(-c2ccc(Cl)cc2Cl)n1Cc1ccccc1 | 1.82% |
| Cc1ccnc(NC(=O)c2cccc([N+](=O)[O-])c2C)c1 | 18.9% |
| C/C(=N\NC(=O)C1(C)CC1(Br)Br)c1ccc(C)cc1C (centres unmarked) | -5.2% |
| COC(=O)C1C(c2ccc(OC)cc2)C(C(=O)OC)S(=O)(=O)C(CCN2CCCCC2)S1(=O)=O (centres unmarked) | 11.6% |
| Cc1ccccc1CN1C(=O)[C@@H]2Cc3c([nH]c4ccccc34)C(C)(C)N2C1=O | 19% |
| COC(=O)Cc1cn(-c2ncc(C(F)(F)F)cc2Cl)c2ccccc12 | 4.06% |
| Cc1ccc(CNC(=O)C(NS(=O)(=O)c2cccc3nsnc23)c2ccccc2)cc1 (centres unmarked) | -16.1% |
| COc1ccc(CN(C)CC(=O)N2CCc3ccccc3C2)cc1 | -42.1% |
| Cc1cccc(C(C)C)c1NC(=O)COC(=O)CN1C(=O)C2CC=CCC2C1=O (centres unmarked) | 13.5% |
| C#CCSc1ncc(-c2ccccc2)cn1 | 4.29% |
| O=C(CSc1nnc(-c2ccncc2)o1)Nc1ccc(F)c(F)c1 | -8.77% |
| Nc1cc(C(=O)OCC(=O)NC(c2ccccc2)c2ccccc2)ccc1Cl | 14.6% |
| CCOc1ccc(NC(=O)CC2C(=O)N(c3ccccc3)C(=O)N2CCOC)cc1 (centres unmarked) | -4.26% |
| O=c1c2c(c(-c3ccccc3)nn1Cc1ccccc1)CCCC2 | -16.2% |
| CCCCCCCCCCOC(=O)Cn1c(COc2ccccc2)[n+](C)c2ccccc21.[Cl-] | -76.1% |
| Cc1c(Cl)cccc1N1C(=O)CC(NNC(=O)c2cccnc2)C1=O (centres unmarked) | 11.1% |
| Cc1ccc(S(=O)(=O)N2CCC(C(=O)N[C@@H](C)C(=O)NCCc3ccccc3)CC2)cc1 | -9.7% |
| CCCCn1c(=O)c(CCC(=O)O)nc2ccccc21 | 13.7% |
| OCC1(CCc2ccccc2)CCN(C/C=C/c2ccccc2)CC1 | -80.9% |
| CSc1nc2nccc(-c3ccc(Cl)cc3)n2n1 | 6.26% |
| O=C(Nc1ccccc1)N1CCN(c2ccc(C(F)(F)F)cn2)CC1 | -23% |

| SMILES | hERG current change (%, negative = inhibition) at 10uM |
| --- | --- |
| O=C(Nc1ccc(NC(=O)C2CC2)nc1)c1cccc(F)c1 | 14.5% |
| CCOC(=O)Nc1ccc2c(C)cc(=O)oc2c1 | -8.06% |
| CN(C)S(=O)(=O)c1cccc(NC(=S)NN=C(Cc2ccccc2)Cc2ccccc2)c1 | -1.73% |
| COc1cc(/C=N/n2c(-c3ccc4c(c3)NC(=O)CO4)csc2=Nc2cccc(C)c2)ccc1O | 5.28% |
| COc1ccc(/C=N/NC(=O)C(C)N(c2ccc(OC)cc2)S(C)(=O)=O)cc1 (centres unmarked) | -8.54% |
| O=c1[nH]c(-c2cccnc2)nc2ccccc12 | 11.8% |
| Nc1oc2ccccc2c(=O)c1-c1ccc2c(c1)OCO2 | 17.3% |
| C/C(=N\Nc1ccc([N+](=O)[O-])cc1)c1ccc(C#N)cc1 | 10.3% |
| CCCn1c(SCC(=O)NC2CCCC2)nnc1-c1cccnc1 | 15.2% |
| c1ccc(-n2c(SCC3CCCCO3)nnc2-c2cnccn2)cc1 (centres unmarked) | -1.46% |
| COc1ccc(NC(=O)NNC(=O)CCC(=O)Nc2ccccc2Cl)cc1 | 17.8% |
| CC(=O)Nc1cccc(C(=O)Nc2nc(C)cs2)c1 | -1.1% |
| Cc1ccc(/C=C2/Sc3ccc(C(=O)NCCN4CCOCC4)cc3NC2=O)cc1 | 2.03% |
| CCCn1nc(NC(=O)CC)c2cc3cccc(C)c3nc21 | 16.2% |
| COc1ccc(NC(=O)CN2CCN(c3c(C)cc(C)cc3C)CC2)cc1 | 3.97% |
| COc1cc(/C=N/N2C(=O)c3ccccc3NC2(C)c2cccc([N+](=O)[O-])c2)cc(Br)c1O (centres unmarked) | -20.7% |
| CCOC(=O)c1cc(C#N)c(SCC(=O)c2cc(C#N)c(SC)nc2C)[nH]c1=O | -7.31% |
| Cc1cc(NC(=O)c2ccc3c(c2)OCCO3)no1 | 4.64% |
| O=C(Nc1ccc(F)cc1)OCCN1CCN(Cc2ccccc2)CCC1=O | -28.9% |
| CC(C)(C)SCCNC(=O)CN(c1ccccc1)S(=O)(=O)c1ccccc1 | 11.4% |
| COc1ccc(/C=N/NC(=O)CNC(=O)/C=C/c2ccco2)cc1OC | -0.434% |
| CC1CCCN(C(=O)C(Cc2ccccc2)n2cccc2)C1 (centres unmarked) | -18.2% |
| CCc1ccc(N(CC(=O)Nc2ccc(NC(C)=O)cc2)S(=O)(=O)c2ccccc2)cc1 | 10.5% |

| SMILES | hERG current change (%, negative = inhibition) at 10uM |
| --- | --- |
| COc1ccc(Cl)cc1NC(=O)CN1c2ccccc2CC1C (centres unmarked) | 43.4% |
| CCOc1cc(C#N)c(NC(=O)c2ccnn2C)cc1OCC | 2.9% |
| Cc1ccc(S(=O)(=O)NC2=NCN(CCOC(=O)c3ccc([N+](=O)[O-])cc3)CN2)cc1 | 12.7% |
| COc1cc(/C=C(\C#N)c2nc3ccccc3[nH]2)cc(Br)c1OCc1ccccc1 | 0.571% |
| CCOc1cc(CNC2CCCC2)c(Cl)cc1OCC(=O)Nc1ccccc1 | -67.8% |
| Cn1c(=O)c2c(ncn2CC(O)CNc2ccc(Br)cc2)n(C)c1=O (centres unmarked) | -24.3% |
| CN(C(=O)c1cccc(NC(=O)Cc2ccccc2)c1)c1ccccc1 | 7.73% |
| COc1c(C)cc(C(=O)C2CCCN(Cc3c(C)n(C)n(-c4ccccc4)c3=O)C2)cc1C (centres unmarked) | -19.9% |
| Cc1nc(-c2cccnc2)sc1C(N)=O | 6.15% |
| COc1ccc(C2/C(=C(/O)c3ccccc3)C(=O)C(=O)N2CC(C)O)c(OC)c1 (centres unmarked) | -1.25% |
| COc1ccccc1C(C)Nc1ccc(S(=O)(=O)N2CCN(C)CC2)cc1[N+](=O)[O-] (centres unmarked) | -5.73% |
| CN(Cc1ccco1)C(=O)c1ccc(CNS(=O)(=O)c2ccc3c(c2)C(C)(C)C(=O)N3C)cc1 | -4.96% |
| CCNc1nc(SCC(=O)Nc2ccc(Cl)c(Cl)c2)nc(N2CCOCC2)n1 | -10.3% |
| O=C(Nc1ccc(N2CCOCC2)cc1)c1cn2ccccc2n1 | 4.75% |
| CCOP(=O)(OCC)c1nc(-c2ccccc2Cl)oc1N1CCOCC1 | 9.31% |
| O=C(CSC1=NCCS1)Nc1ccccc1F | 16.3% |
| CCOc1ccc(N2CC(C(=O)Nc3ccccc3F)CC2=O)cc1 (centres unmarked) | -13.5% |
| C=CCOC(=O)C1=C(C)NC(C)=C(C(=O)OCC=C)C1c1cccs1 | -12.6% |
| COC(=O)c1c(NC(=O)C2(C)Cc3ccccc3C(=O)O2)sc2c1CCCC2 (centres unmarked) | 12.7% |
| CCCCC(=O)OCC(=O)c1ccc(OCC)cc1 | 9.86% |
